The record followed here is ChEMBL document CHEMBL4888484, “Replenishing the malaria drug discovery pipeline: Screening and hit evaluation of the MMV Hit Generation Library 1 (HGL1) against asexual blood stage Plasmodium falciparum ,using a nano luciferase reporter read-out” (2022).

The campaign covered roughly 150,000 compounds. About 540 (0.36%) showed an effect of 50% or more. The list shows a part of the results.

The % Inhibition is the drop in the measured response relative to a control, in per cent.

In this assay the test system is Plasmodium falciparum. Description: Primary screen in NF54 nanoGlo assay, in single point, at 2uM, 72h; a lower Z score goes with more inhibition. The format is functional, Erythrocyte. Particulars: timepoint 72 hour.
On to `Cc1nnsc1C(=O)N[C@@H](C)Cc1ccoc1`, for which the “% Inhibition” value is on record as 3% and the Z score is -0.45.
Turning to `COCCNC(=O)N1CCC(Oc2cnc3ccccc3n2)CC1`, the “% Inhibition” value is -18% and the Z score worked out at 3.48.
Consider `CCC[C@H](C)NS(=O)(=O)c1cc(OC)ccc1OC`, for which the “% Inhibition” value is listed as -11% and the Z score amounted to 1.35.
For `CCC1CN(C(=O)c2ccc(S(N)(=O)=O)c(C)c2)C1`, the “% Inhibition” value is reported as -5% and the Z score was found to be 0.96.
For `CCOc1ncc(C(=O)N(C)c2ccc(Cl)cn2)cc1Cl`, the “% Inhibition” value is listed as -10% and the Z score stood at 1.14.
For `CN(C)c1ccc(C(=O)NC[C@H]2O[C@@H](CO)[C@@H](O)[C@H]2N(C)CCc2ccccc2)cc1` the same measures were 31% and -3.52.
As to `Cc1cc(=O)n2nc(C)c(-c3cccc4ccccc34)c2[nH]1`, the “% Inhibition” value was -10% and the Z score is reported as 1.64.
In the case of `COCC1(CNC(=O)NCC(=O)N2Cc3ccccc3C2)CCC1`, the “% Inhibition” value is reported as -1% and the Z score was 0.1.
Regarding `CC(C)c1nn(C)c(Cl)c1C(=O)N[C@H](C)C(=O)O`, the “% Inhibition” value is recorded as -15% and the Z score came out at 2.41.
On to `O=C(NC1CCCC1)c1c(O)c2cccc3c2n(c1=O)CCC3`, for which the “% Inhibition” value was 5% and the Z score is -0.6.
Take `Cc1ccc(N(Cc2cccs2)C(=O)c2cccs2)cc1Cl`: the “% Inhibition” value is reported as 49% and the Z score is given as -5.61.
With `Cc1nnc(CN(C)C(=O)COCc2nc3c(C)cccc3[nH]2)o1`, the “% Inhibition” value came out at 1% and the Z score is recorded as -0.14.
The matching figures for `CCN(CC(C)(C)O)S(=O)(=O)c1ccc(F)cc1Br`: -7% and 0.91.
With `Cc1cnc(C(C)N2CCCC(N3CCCC3)C2)o1` (centres undefined), the “% Inhibition” value is on record as -3% and the Z score is 0.26.
Take `COc1ccc(C2CN(S(=O)(=O)c3ccccc3)CC2C(=O)NCC(C)C)c(OC)c1` (centres undefined): the “% Inhibition” value is listed as -4% and the Z score is 0.77.
Turning to `COc1ccc([C@H]2OCC[C@@H]2NC(=O)Nc2ccn(-c3ccc(F)cn3)n2)cn1`, the “% Inhibition” value is 2% and the Z score is on record as -0.28.
On to `COC(C)(C)CC(C)NC(=O)N(C)C(C)c1ccco1` (centres undefined), for which the “% Inhibition” value was determined as 10% and the Z score is on record as -1.39.
As for `CCOC(=O)N1CCN(C(=O)CN2C(=O)NC3(CCCCC3C)C2=O)CC1` (centres undefined), the “% Inhibition” value is given as -3% and the Z score stood at 0.36.
Consider `N#Cc1ccccc1COc1cccc(C(=O)NC2(C#N)CCCC2)c1`, for which the “% Inhibition” value was determined as 1% and the Z score is listed as -0.06.
For `O=C(NCc1nnc2n1CCOC2)NC[C@@H]1C[C@H](c2ccccc2)CO1` the same measures were -1% and 0.14.
Consider `CC(C)S(=O)(=O)CC(=O)N1C2CCC1CC(CC(F)(F)F)C2` (centres undefined), for which the “% Inhibition” value is recorded as 6% and the Z score is reported as -1.23.
In the case of `Cc1nc2c(C)cccc2cc1C(=O)N1CCC(Cc2nncn2C)CC1`, the “% Inhibition” value amounted to 4% and the Z score is -0.78.
For `C[C@H](NC(=O)c1ccc2scnc2c1)C1=CCCCC1`, the “% Inhibition” value was 3% and the Z score is given as -0.57.
Consider `O=C(CNC(=O)c1cnccn1)NCCc1c[nH]c2ccc(F)cc12`, for which the “% Inhibition” value is listed as -5% and the Z score worked out at 0.67.
Regarding `CCc1csc(-n2cc(C(=O)N3[C@H](C)CCC[C@@H]3C)cn2)n1`, the “% Inhibition” value was -19% and the Z score is on record as 2.04.
Take `COc1ccc(C(=O)NC2CC2)cc1OC1CCN(Cc2ccc(F)cc2F)CC1`: the “% Inhibition” value was -8% and the Z score came to 1.57.
For `CN1CCCN(C)C2(CCN(C(=O)c3ccc(F)c(Cl)c3)CC2)C1`, the “% Inhibition” value is recorded as -21% and the Z score turned out to be 2.62.
Regarding `Cn1ccc(C(NC(=O)N2CCC(F)(CO)C2)c2ccc(Cl)cc2)n1` (centres undefined), the “% Inhibition” value is recorded as -6% and the Z score came to 1.07.
As for `COC[C@H]1CN(C(=O)c2cccnc2Nc2ccccc2F)CCO1`, the “% Inhibition” value is recorded as -13% and the Z score is recorded as 1.65.
In the case of `Cc1ccc(NC(=O)CC(C)(C)C)nc1`, the “% Inhibition” value is -16% and the Z score was found to be 1.43.
In the case of `Cn1nccc1S(=O)(=O)N1CCC[C@H](CC(N)=O)CC1`, the “% Inhibition” value was -3% and the Z score was 0.39.
With `CCCNC(=O)c1ccc(-c2c(-c3ccc(C)cc3)ncn2C2CCCCC2)o1`, the “% Inhibition” value is recorded as -2% and the Z score is recorded as 0.32.
For `NC(=O)C1CCN(c2nc3nccc(-c4cccc5ccccc45)c3c(=O)[nH]2)CC1` the same measures were -3% and 0.45.
Take `CC(=O)N1CCn2c(nnc2[C@@H]2CCCN2Cc2ccc(F)cc2F)C1`: the “% Inhibition” value was -12% and the Z score worked out at 1.72.
The matching figures for `CCCn1ncc(CN2CCC3(CC2)C[C@@H](c2ccccc2)C(=O)N(C)C3)c1C`: -5% and 0.78.
Turning to `COCC(COC)NC(=O)N1CCC2(C=Cc3ccccc3O2)CC1`, the “% Inhibition” value was -3% and the Z score came out at 0.45.
Regarding `Cc1nnc(CN2CCC[C@H](CNC(=O)c3ccoc3)C2)s1`, the “% Inhibition” value is listed as -7% and the Z score was found to be 1.39.
As for `CN(Cc1ncc[nH]1)c1nccn(C)c1=O`, the “% Inhibition” value is listed as 15% and the Z score is -1.95.
As to `O=C(NCC1(CO)CC1)C1CCCCC1c1nc2ccccc2s1` (centres undefined), the “% Inhibition” value was -13% and the Z score was 2.48.
The matching figures for `CCN1CC[C@H]2OCCN(CC(C)=Cc3ccccc3)[C@H]2C1`: -8% and 1.59.
On to `COc1ccc(S(=O)(=O)Nc2ccccc2C(=O)NCc2ccco2)cc1`, for which the “% Inhibition” value is 3% and the Z score is -0.38.
For the compound `Cn1c(CN2CCC(O)CC2)nnc1[C@H]1CCCN(c2nccs2)C1`, the “% Inhibition” value is given as -1% and the Z score worked out at 0.13.
